Experimental data: ChEMBL document CHEMBL1201862, “PubChem BioAssay data set” (2004)
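A five-concentration, 48-hour dose response in 96-well plates underlies each endpoint, interpolated linearly between surrounding concentrations. Here, GI50 denotes the concentration required for 50% inhibition of growth.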 Activity calls are given as the source filed them. Rule as the data show it: active = GI50 up to about 1.1 µM and inactive = higher.

What follows are compounds tested on NCI-H322M (assay: NCI anticancer screen, dose series, 48 h).

SMILES | GI50
CCC1(N)C(=O)OCc2c1cc1n(c2=O)Cc2cc3ccccc3nc2-1 (centres undefined) | inactive: 27.1 µM
N=C(N)SCC(=O)O | inactive: > 100 µM
N=c1oc2cc(O)c(O)cc2cc1C(N)=O | inactive: > 100 µM
O=C(CCc1ccc(O)c(O)c1)OCCc1ccccc1 | inactive: 56.8 µM
N#Cc1ccc(/C=C(/C(=O)c2ccccc2)c2ccccc2)cc1 | inactive: 14.5 µM
O=C1CCC2COc3ccc(O)c1c32 (centres undefined) | inactive: > 100 µM
COC(=O)c1c(OC(C)=O)ccc2c1c1c(OC(C)=O)c3ccccc3c(OC(C)=O)c1n2C | inactive: 29.4 µM
COC(=O)C1=C(C[S+]([O-])c2ccccc2[N+](=O)[O-])ON(C)C1c1ccccc1 (centres undefined) | inactive: > 100 µM
COC(C)(C)[C@@H](O)[C@H]1C[C@H](C)[C@@]2(CC[C@]3(C)[C@@H]2CC[C@@H]2[C@@]4(C)CC[C@@H](OC(C)=O)C(C)(C)[C@@H]4C[C@@H](OC4OC(COC(C)=O)C(O)C(O)C4O)[C@]23C)O1 (some centres undefined) | inactive: 2.01 µM
COc1ccc2c(c1)CN1C(=N2)CSC1c1cccc(Br)c1 (centres undefined) | inactive: 27.9 µM
Cc1cccc(/C=N/N=C(\N)NO)n1 | inactive: 87.9 µM
O=C1c2c(ccc3c2CCC3)CC1Cc1ccc2c(c1)CCC2 (centres undefined) | inactive: 86.7 µM
COc1ccc(NC(=S)N/N=C/c2c(C)n(C)n(-c3ccccc3)c2=O)cc1 | inactive: 74.1 µM
O=C(N/C(=C\c1ccc([N+](=O)[O-])cc1)c1nc2ccccc2[nH]1)c1ccccc1 | inactive: > 100 µM
OCCN(C1=NCCN1)/[N+](=C/c1ccccc1O)[CH-]c1ccccc1O | inactive: > 100 µM
O=C(O)CSC1=NC(=O)C2(NN1)c1ccccc1-c1ccccc12 | inactive: > 10 µM
CCOC(=O)N/N=C(\Cc1ccc([N+](=O)[O-])cc1)OCC | inactive: > 100 µM
CC1(C)O[C@@H](CBr)C[C@H](C[C@H]2C[C@@H](O)C[C@@H](CCOCc3ccccc3)O2)O1 | inactive: 18.1 µM
CCOC(=O)/C(C#N)=C(/NNc1ccccc1)c1ccncc1C(=O)O | inactive: > 100 µM
O=C(C(O)c1cn(Cc2ccccc2)c2ccccc12)N1CCCCC1 (centres undefined) | inactive: > 100 µM
Cn1c2ccccc2n2c3ncccc3/c(=N/CCCC(=O)O)c(C#N)c12 | inactive: > 100 µM
CCOc1ccc(Nc2nc(N)nc(N)c2N=O)cc1 | inactive: 51.4 µM
O=C(c1ccco1)N(C(=O)N1CCN(c2ccccc2)CC1)S(=O)(=O)c1ccccc1 | inactive: 88.7 µM
NC1=Nc2ccccc2Sc2nc3ccccc3n21 | inactive: 56.5 µM

SMILES | GI50
Oc1ccc(/C=C/c2cccc(/C=C/c3ccc(O)c(O)c3)n2)cc1O | inactive: 15.7 µM
Cc1ccc(Cc2n[nH]c(=O)n2Nc2ccccc2)cc1 | inactive: > 100 µM
CCOC(=O)/C(=N\Nc1ccc(-n2c(C)nc3ccccc3c2=O)cc1)C(C)=O | inactive: 81.8 µM
CCOC(=O)NC(OCc1ccccc1)(C(=O)OC)C(F)(F)F (centres undefined) | inactive: > 100 µM
CC1(C)OC(C(N)=O)=C(C(N)=O)O1 | inactive: > 100 µM
COC(=O)CC1C(=O)OCc2c1cc1n(c2=O)Cc2c-1nc1ccccc1c2OC (centres undefined) | inactive: 63.5 µM
Cc1nc2nnc(CCCCCCCCc3nnc4nc(C)[nH]n34)n2[nH]1 | inactive: > 100 µM
COC1=CC(=O)c2nc3ccccc3c3ccnc1c23 | inactive: 1.92 µM
COc1ccc(Nc2nc(N)c(C(=O)c3cccs3)s2)cc1 | inactive: 7.94 µM
CN1CCN(c2cc3nsnc3c3nsnc23)CC1 | inactive: > 10 µM
NC(=S)N/C=C1\C(=O)Oc2ccccc2C1=O | inactive: 44.9 µM
COc1ccc(/N=C\c2cc(OC)c(OC)c(OC)c2)cc1 | inactive: > 100 µM
CS(=O)(=O)OCC1OC(n2ccc(NC(=O)c3ccccc3)nc2=O)CC1OS(C)(=O)=O (centres undefined) | inactive: > 100 µM
O=C1CSC(c2ccc(Cl)cc2)N1c1ccc(Oc2ccc(Cl)cc2)c(Cl)c1 (centres undefined) | inactive: 15.1 µM
CC(C)(C)C1CCC2c3c([nH]c4ccccc34)C3C(=O)N(c4ccc(Br)cc4)C(=O)C3C2C1 (centres undefined) | inactive: 41.8 µM
C[C@@]12CCC(=O)C=C1CC[C@H]1C2=CC[C@]2(C)C1CC[C@@]2(C)O (some centres undefined) | inactive: > 100 µM
Nc1ccc(-c2nnc(-c3c(Cl)c(Cl)c(Cl)c(Cl)c3-c3nc4cc(C(=O)c5ccccc5)ccc4[nH]3)o2)cc1 | inactive: 26.1 µM
CCOC(=O)NC(=O)c1cn(CCSCCOC(=O)NCCCCCCNC(=O)OCCSCCn2cc(C(=O)NC(=O)OCC)c(=O)n(C)c2=O)c(=O)n(C)c1=O | inactive: 64.7 µM
Cc1nc([N+](=O)[O-])cn1CC(=N)N | inactive: > 100 µM
c1ccc(C2C3=C(Nc4ncnn42)c2ccccc2C3)cc1 (centres undefined) | inactive: 36.7 µM
OCc1cc2c(ccc3sc4ccc5sc6ccc7ncccc7c6c5c4c32)s1 | inactive: 5.71 µM
N#CC1=C(N)OC2=C(CCCc3ccc([N+](=O)[O-])cc32)C1c1ccccc1 (centres undefined) | inactive: 6.67 µM
CSc1nc(C)cc(N(C)c2ccccc2)n1 | inactive: 51.9 µM
O=C1CSC2(CC(/C=C/c3ccccc3)=NN2c2cccc(S(=O)(=O)O)c2)N1c1nc2ccccc2s1 (centres undefined) | inactive: 63.2 µM

SMILES | GI50
c1ccc2c(c1)cc1n2CCc2c-1[nH]c1ccccc21 | inactive: > 10 µM
N#CC(C#N)=Cc1ccc(CP(=O)(O)O)cc1 | inactive: > 100 µM
Cc1nc2c(=O)[nH]ncc2[nH]1 | inactive: > 100 µM
O=C1C[C@@]23CCC4(CC2CCC[C@H]3O1)OCCO4 (some centres undefined) | inactive: > 100 µM
CC(C)N(C(=O)c1cccc(C(=O)N(C(C)C)C(C)C)c1)C(C)C | inactive: > 100 µM
N#CC(c1ccccc1)N1CCCN(C(C#N)c2ccccc2)C1c1ccccc1O (centres undefined) | inactive: > 100 µM
O=C(NNC(=S)Nc1ccccc1)c1csc(NC(=S)NC2CCCCC2)n1 | inactive: > 100 µM
O=C1Nc2ccccc2N/C1=C\C(=O)c1ccccc1O | inactive: > 100 µM
CN(/N=C/c1ccccn1)C1=NCCN1 | inactive: > 100 µM
CC(=O)Oc1c2c(c(O)c3ccccc13)C(n1cnc3c(ncn3C3OC(CO)C4OC(C)(C)OC43)c1=N)CCC2 (centres undefined) | inactive: 19.1 µM
O=C(O)/C(=C/C(=O)c1ccc(Cl)cc1)NNc1ccc([N+](=O)[O-])cc1[N+](=O)[O-] | inactive: 36.2 µM
Cc1cccc(C(C)(C)C)c1NC(=O)CCc1nnc(S)[nH]1 | inactive: > 100 µM
COc1c(OC)c(OC)c(C(=O)/C=C/c2ccccc2)c(OC)c1OC | inactive: 8.49 µM
Cc1cc(-c2nc3ccccc3s2)ccc1NC(=O)[C@H](C)N | inactive: 7.94 µM
O=C1[C@@H]2C(c3ccc(Cl)cc3Cl)=NO[C@@H]2C(=O)N1c1ccc(Cc2ccc(N3C(=O)[C@H]4C(c5ccc(Cl)cc5Cl)=NO[C@H]4C3=O)cc2)cc1 | inactive: > 100 µM
O=C1C=C(Nc2ccc(S(=O)(=O)Nc3ncccn3)cc2)c2ccccc2C1=O | inactive: 20.2 µM
CCCCCC(=O)C(C)C1=Nc2nnc(CCCCCCCc3nnc4n3C(=O)C(C(C)C(=O)CCCCC)=N4)n2C1=O (centres undefined) | inactive: > 100 µM
O=[N+]([O-])c1ccc(-n2nc3ccc4nonc4c3n2)cc1 | inactive: 46.9 µM
COc1ccc(C(=O)Cc2cc(OC)ccc2OC)cc1 | inactive: > 100 µM
COc1ccc2[nH]cc(CCNC(=O)[C@H](Cc3ccccc3)NC(=O)[C@@H](NCC(F)(F)F)C(C)C)c2c1 | inactive: 20.7 µM
N#CC(N)(C(=O)CCC(=O)Nc1cccc(Cl)c1)c1ccc(Cl)cc1 (centres undefined) | inactive: > 100 µM
Nc1nncc2c1ccn2C1OC(CO)C(O)C1O (centres undefined) | inactive: > 100 µM
COc1ccc(/C=C2/SC(c3ccccc3)N(NC(=O)CCCCCCCCC(=O)NN3C(=O)/C(=C\c4ccc(OC)c(OC)c4)SC3c3ccccc3)C2=O)cc1OC (centres undefined) | inactive: 74.8 µM
Cc1[nH]c2ncn3ncnc3c2c1Cc1ccccc1 | inactive: > 100 µM

SMILES | GI50
O=c1c2ccccc2nc(-c2ccccc2Cl)n1NCC1(O)OCC(O)C(O)C1O (centres undefined) | inactive: > 100 µM
CCOc1ccc2nc(NC(=O)C(=O)C(C(=O)c3ccccc3-c3ccccc3)C3OC(=O)c4ccccc43)sc2c1 (centres undefined) | inactive: 19.7 µM
CCOC(=O)c1ncn(CCc2ccc(Cl)cc2)c1C | inactive: > 100 µM
O=S(O)c1cc(Cl)cc(Cl)c1O | inactive: > 100 µM
O=C(NCc1cccnc1)C1COc2cc(-c3cc(=O)c4ccccc4o3)ccc2O1 (centres undefined) | inactive: > 63.8 µM
CCc1n[nH]c(=O)n1/N=C/c1ccc(/C=N/n2c(CC)n[nH]c2=O)cc1 | inactive: > 100 µM
Cc1nc2c(nc1C)-c1[nH]c3c(c1C(=O)C2=O)CCCC3=O | inactive: 9.66 µM
CC1(C)OCC[C@@H]1[Si](C)(C)C | inactive: > 100 µM
CSc1c(C#N)c(O)n(-c2ccc(C)cc2)c(=O)c1C#N | inactive: > 100 µM
COc1ccc(OC2OC(COC(c3ccccc3)(c3ccc(OC)cc3)c3ccc(OC)cc3)C(O)C(O)C2O)cc1 (centres undefined) | inactive: 6.87 µM
O=C(O)C1CC2CC(=O)C1C2 (centres undefined) | inactive: > 100 µM
CCCCCCCCC/C=C1\CC(CO)(COC(=O)c2ccccc2)OC1=O (centres undefined) | inactive: 27.7 µM
c1ccc([B-]2(c3ccccc3)NCCCO2)cc1 | inactive: 84.9 µM
CC[C@]1(O)CC(OC2CC(N(C)C)C(O)C(C)O2)c2c(cc3c(c2O)C(=O)c2c(O)cccc2C3=O)[C@@H]1C(=O)OC (some centres undefined) | active: 0.176 µM
CC(C)C1NC(=O)[C@H](C)OC(=O)[C@@H](C(C)C)NC(=O)[C@@H](C)OC(=O)C(C(C)C)NC(=O)[C@H](C)OC1=O (some centres undefined) | inactive: > 100 µM
COc1cccc(-c2cc(O)c3cccnc3n2)c1 | active: 0.309 µM
Cc1cccc(-c2cc(O)c3c(C)ccnc3n2)c1 | active: 0.541 µM
C/C(=N\N=C(/S)N(C)C)c1cccnn1 | active: 0.773 µM
CCC(=O)NCCc1c[nH]c2ccc(OC)cc12 | inactive: > 100 µM
COc1cc2c(cc1O)Cc1c-2[n+](C)cc2cc(OC)c(OC)cc12 | inactive: > 100 µM
CCCCCOC(=O)c1cc2cc(CCl)ccc2oc1=O | inactive: 16 µM
COc1cc2c(/C=C3/C(=O)N(c4ccccc4)c4ccccc43)c(Cl)[nH]c2cc1C | inactive: 3.33 µM
